# Some of the results follow.
# B1: MGL2 (Mus musculus), Q8JZN1 (protein)
# chain: MTMRYENFQNLEREEKNQEMRNGDKKGGMESPKFALIPSQSFLWRILSWTHLLLFSLGLSLLLLVVISVIGSQNSQLRRDLGTLRAILDNTTSKIKAEFQSLDSRADNFEKGISSLKVDVEDHRQELQAGRDLSQKVTSLESTLEKREQALKTDLSDLTDHVQQLETDLKALTCQLANLKNNGSEVACCPLHWTEHEGSCYWFSESEKSWPEADKYCRLENSHLVVVNSLEEQNFLQNRLANVLSWMGLTDQNGPWRWVDGTDFDKGFKNWRPLQPDNWHGHMLGGGEDCAHFSYDGRWNDDVCQRHYHWICETELGKASSAHSPQLIASVP
# Legend:
# Experiment in all cases: glycan array binding signal (z-score within array); higher = stronger binding
# Conditions in all cases: glycan notation: IUPAC condensed, linker removed
# GlcNAc(b1-3)GalNAc = target: GlcNAc(b1-3)GalNAc
# Outline: (§1)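 Arrays were curated from the Consortium for Functional Glycomics database, 3228 in total, and kept only where the protein sequence was available. Binding is expressed as a within-array Z-score. This score was averaged across arrays of the same protein sequence at different concentrations or buffers and across linkers, and negative values can be read as non-binding.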
# GlcNAc(b1-3)Man = target: GlcNAc(b1-3)Man
# Outline: as §1
# [1] = target: GlcNAc(b1-3)[GlcNAc(b1-4)][GlcNAc(b1-6)]GlcNAc
# Outline: as §1
# [2] = target: GlcNAc(b1-3)[GlcNAc(b1-6)]Gal(b1-4)GlcNAc
# Outline: as §1
# [3] = target: GlcNAc(b1-3)[GlcNAc(b1-6)]GalNAc
# Outline: as §1
# [4] = target: GlcNAc(b1-4)Gal(b1-4)GlcNAc
# Outline: as §1
# GlcNAc(b1-4)GlcNAc = target: GlcNAc(b1-4)GlcNAc
# Outline: as §1
# [5] = target: GlcNAc(b1-4)GlcNAc(b1-4)GlcNAc
# Outline: as §1
# [6] = target: GlcNAc(b1-4)GlcNAc(b1-4)GlcNAc(b1-4)GlcNAc(b1-4)GlcNAc
# Outline: as §1
# [7] = target: GlcNAc(b1-4)GlcNAc(b1-4)GlcNAc(b1-4)GlcNAc(b1-4)GlcNAc(b1-4)GlcNAc
# Outline: as §1
# [8] = target: GlcNAc(b1-4)[GlcNAc(b1-6)]GalNAc
# Outline: as §1
# [9] = target: GlcNAc(b1-6)Gal(b1-4)GlcNAc
# Outline: as §1
# GlcNAc(b1-6)GalNAc = target: GlcNAc(b1-6)GalNAc
# Outline: as §1
# [10] = target: GlcNAc6S(b1-3)Gal(b1-4)GlcNAc
# Outline: as §1
# Kdn(a2-3)Gal(b1-3)GalNAc = target: Kdn(a2-3)Gal(b1-3)GalNAc
# Outline: as §1
# Kdn(a2-3)Gal(b1-3)GlcNAc = target: Kdn(a2-3)Gal(b1-3)GlcNAc
# Outline: as §1
# Kdn(a2-3)Gal(b1-4)Glc = target: Kdn(a2-3)Gal(b1-4)Glc
# Outline: as §1
# Kdn(a2-3)Gal(b1-4)GlcNAc = target: Kdn(a2-3)Gal(b1-4)GlcNAc
# Outline: as §1
# [11] = target: Kdn(a2-3)Gal(b1-4)[Fuc(a1-3)]GlcNAc
# Outline: as §1
# Kdn(a2-6)Gal(b1-4)GlcNAc = target: Kdn(a2-6)Gal(b1-4)GlcNAc
# Outline: as §1
# [12] = target: Man(a1-2)Man(a1-2)Man(a1-3)Man
# Outline: as §1
# [13] = target: Man(a1-2)Man(a1-2)Man(a1-6)[Man(a1-3)]Man
# Outline: as §1
# Man(a1-2)Man(a1-3)Man = target: Man(a1-2)Man(a1-3)Man
# Outline: as §1
# [14] = target: Man(a1-2)Man(a1-3)[Man(a1-2)Man(a1-6)]Man
# Outline: as §1
# [15] = target: Man(a1-2)Man(a1-3)[Man(a1-2)Man(a1-6)]Man(a1-6)[Man(a1-2)Man(a1-2)Man(a1-3)]Man
# Outline: as §1
# [16] = target: Man(a1-2)Man(a1-3)[Man(a1-2)Man(a1-6)]Man(a1-6)[Man(a1-2)Man(a1-2)Man(a1-3)]Man(b1-4)GlcNAc(b1-4)GlcNAc
# Outline: as §1
# [17] = target: Man(a1-2)Man(a1-3)[Man(a1-6)]Man(a1-6)[Man(a1-2)Man(a1-3)]Man(b1-4)GlcNAc(b1-4)GlcNAc
# Outline: as §1
# [18] = target: Man(a1-2)Man(a1-6)[Man(a1-3)]Man(a1-6)[Man(a1-2)Man(a1-2)Man(a1-3)]Man
# Outline: as §1
# [19] = target: Man(a1-2)Man(a1-6)[Man(a1-3)]Man(a1-6)[Man(a1-2)Man(a1-2)Man(a1-3)]Man(b1-4)GlcNAc(b1-4)GlcNAc
# Outline: as §1
# Man(a1-3)[Man(a1-6)]Man = target: Man(a1-3)[Man(a1-6)]Man
# Outline: as §1
# [20] = target: Man(a1-3)[Man(a1-6)]Man(a1-6)[Man(a1-2)Man(a1-3)]Man(b1-4)GlcNAc(b1-4)GlcNAc
# Outline: as §1
# [21] = target: Man(a1-3)[Man(a1-6)]Man(a1-6)[Man(a1-3)]Man
# Outline: as §1
# [22] = target: Man(a1-3)[Man(a1-6)]Man(a1-6)[Man(a1-3)]Man(b1-4)GlcNAc(b1-4)GlcNAc
# Outline: as §1
# [23] = target: Man(a1-3)[Man(a1-6)]Man(b1-4)GlcNAc(b1-4)GlcNAc
# Outline: as §1
# [24] = target: Man(a1-3)[Man(a1-6)]Man(b1-4)GlcNAc(b1-4)[Fuc(a1-6)]GlcNAc
# Outline: as §1
# Man(a1-6)Man = target: Man(a1-6)Man
# Outline: as §1
# Man(b1-4)GlcNAc = target: Man(b1-4)GlcNAc
# Outline: as §1
# MurNAc(b1-4)GlcNAc = target: MurNAc(b1-4)GlcNAc
# Outline: as §1
binder,measurement,setting,value
B1,glycan array binding signal (z-score),GlcNAc(b1-3)GalNAc,-0.095
same,glycan array binding signal (z-score),GlcNAc(b1-3)Man,-0.304
same,glycan array binding signal (z-score),[1],-0.146
same,glycan array binding signal (z-score),[2],-0.295
same,glycan array binding signal (z-score),[3],-0.162
same,glycan array binding signal (z-score),[4],-0.231
same,glycan array binding signal (z-score),GlcNAc(b1-4)GlcNAc,-0.174
same,glycan array binding signal (z-score),[5],-0.183
same,glycan array binding signal (z-score),[6],-0.21
same,glycan array binding signal (z-score),[7],-0.179
same,glycan array binding signal (z-score),[8],-0.248
same,glycan array binding signal (z-score),[9],-0.15
same,glycan array binding signal (z-score),GlcNAc(b1-6)GalNAc,6.85
same,glycan array binding signal (z-score),[10],-0.225
same,glycan array binding signal (z-score),Kdn(a2-3)Gal(b1-3)GalNAc,-0.178
same,glycan array binding signal (z-score),Kdn(a2-3)Gal(b1-3)GlcNAc,-0.198
same,glycan array binding signal (z-score),Kdn(a2-3)Gal(b1-4)Glc,-0.077
same,glycan array binding signal (z-score),Kdn(a2-3)Gal(b1-4)GlcNAc,-0.215
same,glycan array binding signal (z-score),[11],-0.248
same,glycan array binding signal (z-score),Kdn(a2-6)Gal(b1-4)GlcNAc,-0.195
same,glycan array binding signal (z-score),[12],-0.161
same,glycan array binding signal (z-score),[13],-0.215
same,glycan array binding signal (z-score),Man(a1-2)Man(a1-3)Man,-0.114
same,glycan array binding signal (z-score),[14],-0.135
same,glycan array binding signal (z-score),[15],-0.224
same,glycan array binding signal (z-score),[16],-0.041
same,glycan array binding signal (z-score),[17],-0.249
same,glycan array binding signal (z-score),[18],-0.183
same,glycan array binding signal (z-score),[19],-0.223
same,glycan array binding signal (z-score),Man(a1-3)[Man(a1-6)]Man,-0.147
same,glycan array binding signal (z-score),[20],-0.006
same,glycan array binding signal (z-score),[21],0.052
same,glycan array binding signal (z-score),[22],-0.288
same,glycan array binding signal (z-score),[23],-0.183
same,glycan array binding signal (z-score),[24],-0.287
same,glycan array binding signal (z-score),Man(a1-6)Man,-0.18
same,glycan array binding signal (z-score),Man(b1-4)GlcNAc,-0.174
same,glycan array binding signal (z-score),MurNAc(b1-4)GlcNAc,-0.181

# Reference: the supplement of paper PMC8728848
